Paper PMC9574860, “Chemical Toolkit for PARK7: Potent, Selective, and High-Throughput” (Journal of Medicinal Chemistry, 2022)
About 400 (5.1%) of roughly 7,900 compounds showed an effect of 50% or more. The list shows a part of the results.

Each compound was assayed against Parkinson's disease protein 7 (PARK7/DJ1) (human, UniProt Q99497) (assay: primary screen, percent inhibition; read as competition with a fluorescent probe by fluorescence polarization; higher = more effect of the substance). Details: 100 µM.
Summary of the method: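 Fluorescence-polarization probe displacement (JYQ-107, 20 nM final, 2 h) after 2 h preincubation of PARK7 (0.2 μM final) with each fragment at 100 μM final. Read-out ex/em 480/520 nm; remaining activity derived from FP signal loss relative to reference controls.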

Chain of Parkinson's disease protein 7 (PARK7/DJ1) (Q99497 whole entry, looked up, the tested form may be a part): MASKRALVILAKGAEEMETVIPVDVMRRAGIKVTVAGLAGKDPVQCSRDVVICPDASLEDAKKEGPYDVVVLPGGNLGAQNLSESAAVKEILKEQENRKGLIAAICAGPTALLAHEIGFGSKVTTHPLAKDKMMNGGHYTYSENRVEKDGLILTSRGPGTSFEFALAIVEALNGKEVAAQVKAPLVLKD

| SMILES | Inhibition % |
| --- | --- |
| CCN(Cc1ccc(OC)c(F)c1)C(=O)CCl | 10% |
| C=CC(=O)Nc1cccc2c1COCC2 | -1.36% |
| N#Cc1ncn(CC(=O)c2ccc(F)cc2)n1 | 3.22% |
| CC1NC(=O)CCC1NC(=O)c1ccc(C#N)[nH]1 (stereo not shown) | 7.12% |
| Cc1ccc(C=C(C#N)C(=O)NC(C)C)o1 | 7.55% |
| CC(C)(C)OC(=O)n1cc(B2OC(C)(C)C(C)(C)O2)c2cnccc21 | 7.25% |
| C=CC(=O)N1CCS(=O)(=O)c2ccccc2C1 | 7.33% |
| COc1cccc(S(=O)(=O)CCCl)c1 | 3.15% |
| O=S1(=O)C=C(C(F)(F)F)CCC1 | 9.12% |
| C=CC(=O)N1CCCC1c1ccc(OC)c(F)c1 (stereo not shown) | 5.7% |
| CC1(C)OB(c2cccc3ncoc23)OC1(C)C | 31% |
| O=C1N(c2ccc3c(c2)OCO3)C(c2ccco2)C1(F)F (stereo not shown) | 8.07% |
| Cc1cc(NC(=O)c2cccnc2S)c[nH]c1=O | 22.1% |
| C=CC(=O)NCc1cccc(C(=O)NC(C)(C)C)c1 | 9.53% |
| C=CC(=O)NC1CCc2sccc2NC1=O (stereo not shown) | 8.71% |
| CC1CC(Sc2ccc(C(F)(F)F)cn2)C(=O)O1 (stereo not shown) | 11.2% |
| COCc1ccccc1CNC(=O)CCl | 10.3% |
| CC1(C)OB(c2cccc3ccoc23)OC1(C)C | 3.59% |
| COc1nscc1B1OC(C)(C)C(C)(C)O1 | 20.8% |
| O=C(CCl)NCc1ccc2c(c1)OCO2 | 14% |
| COC1CCCCC1Nc1ccc(C#N)nc1 (stereo not shown) | 4.9% |

| SMILES | Inhibition % |
| --- | --- |
| O=c1onc(-c2cccnc2)n1C1C=CCCC1 (stereo not shown) | 54.8% |
| Cc1ccc(C2=NC(=Cc3cnn(C)c3)C(=O)O2)cc1 | 10.1% |
| N#Cc1ccc(Cl)cc1N1CCC(C2OCCO2)CC1 | 2.51% |
| C=CC(=O)Nc1ccc(C2CC2)cc1 | -3.62% |
| c1ccc(SCC2CO2)cc1 (stereo not shown) | 8.47% |
| Cc1coc(Sc2cnc(C#N)cn2)n1 | 8.33% |
| O=S(=O)(F)c1ccccc1C(F)(F)F | 11.3% |
| COc1cccc(N(C(C)=O)C2C=CS(=O)(=O)C2)c1 (stereo not shown) | 7.7% |
| Cn1cc(C=CC(=O)N2CCCCCC2)c(=O)n(C)c1=O | 6.55% |
| Cc1ccc(NC(=O)CCl)cc1Br | 75% |
| C=CC(=O)NC1(C2CC2)CCOCC1 | 7.04% |
| C=CC(=O)N1CCC2(C1)OCc1ccccc12 (stereo not shown) | 9.73% |
| C=CC(=O)NC1CCN(c2cccc(Cl)c2)C1 (stereo not shown) | 2.26% |
| CC(Nc1ccc(C#N)nc1)c1ccncc1 (stereo not shown) | 8.24% |
| CC1CCCCC1NC(=O)Cn1cnc(C#N)n1 (stereo not shown) | 5.45% |
| O=C(NCC1CC1)Oc1ccccc1 | 10.1% |
| C=CC(=O)N(CC)C1CCOC(C)(C)C1 (stereo not shown) | 8.38% |
| COc1ccc(C=C(C#N)C(N)=O)c(Cl)c1OC | 3.63% |
| O=c1c2ccccc2nc(S)n1C1CCOCC1 | 2.99% |
| C=CC(=O)NCC1(OC)CCOC1 (stereo not shown) | 1.62% |
| N#Cc1nnc(-c2ccccc2)o1 | 4.85% |

| SMILES | Inhibition % |
| --- | --- |
| C=CC(=O)NC1(CF)CCOCC1 | 4.75% |
| CC(c1ccc(F)cc1)N(C)C(=O)CCl (stereo not shown) | 96.3% |
| CN(C)C(=O)CN1CCN(C(=O)CCl)CC1.Cl | 13% |
| C=CC(=O)NCc1nnc(C(C)(C)C)s1 | 10.4% |
| COC1CCN(c2nc(C#N)c(Cl)s2)CC1 | 7.16% |
| COc1ccc(CNC(=O)CC2C=CS(=O)(=O)C2)cc1 (stereo not shown) | -0.242% |
| O=C(C=Cc1cnn(-c2ccccc2)c1)N1CCC1 | 12.2% |
| CC1(C)OB(C2=CCCOC2)OC1(C)C | 8.59% |
| O=C(O)C=CC(=O)Nc1ccc(F)c(Cl)c1 | 8.72% |
| CCN(C(=O)CCl)C1CCS(=O)(=O)C1 (stereo not shown) | 10.9% |
| C=CC(=O)N1CCC2COCC2C1 (stereo not shown) | 6.41% |
| CC(O)Cn1c(S)nc2ccccc2c1=O (stereo not shown) | 9.62% |
| CC1(C)OB(c2ccc3sccc3c2)OC1(C)C | 1.89% |
| O=C(C=Cc1nc2ccccc2s1)N1CCC1 | 6.59% |
| O=C(CCl)Nc1ccccc1-c1ccccc1 | 8.41% |
| CCN(Cc1ccc(C#N)cc1F)C(=O)CCl | 16.8% |
| C=CC(=O)NCC1(N(C)C)Cc2ccccc2C1 | 10.8% |
| C=CC(=O)NC(C)C1CCCN(C2CCC2)C1 (stereo not shown) | 0.724% |
| N#Cc1cc(C2CC2)ccn1 | 4.67% |
| C=CC(=O)N1CCOCC1CC1CCCO1 (stereo not shown) | 4.78% |
| CC1(C)OB(c2ccc(F)c(C(F)(F)F)c2)OC1(C)C | 1.74% |

| SMILES | Inhibition % |
| --- | --- |
| CCn1c(S)nc2ccc(F)cc2c1=O | 0.493% |
| N#CC(=Cc1ccco1)C(=O)NC1CC1 | 7.63% |
| CS(=O)(=O)OCC1CCc2ccccc21 (stereo not shown) | 10.7% |
| Cc1cnn(CC2CN(C3CC(C)OC3=O)CCO2)c1 (stereo not shown) | 5.46% |
| CC(C)(C)C(NC(=O)CCl)c1cccs1 (stereo not shown) | 7.07% |
| O=c1[nH]c(Cc2ccncc2)no1 | 6.48% |
| NC(=O)c1cccnc1S | 4.97% |
| CSc1cccnc1C#N | 8.15% |
| O=C1NC(=O)C(CS(=O)(=O)F)N1 (stereo not shown) | 69.7% |
| COCCCn1c(S)nc2ccccc2c1=O | 10.4% |
| CC(C)(C)c1ccc(-c2csc(NC(=O)CCl)n2)cc1.Cl | 2.6% |
| C1C2CC3CC1CC(C2)C31CO1 (stereo not shown) | 5.19% |
| C=CC(=O)NC1(c2nc(C)cs2)CCOCC1 | -0.88% |
| C=CS(=O)(=O)c1cccc(C#N)c1 | 6.17% |
| C=CC(=O)N1CCC(c2ccccc2)CC1 | 5.28% |
| C=CC(=O)N1CCS(=O)(=O)[C@@H](C)C1 | 4.38% |
| O=S(=O)(F)c1cc2c(Br)cccc2s1 | 8.7% |
| O=C(c1cccc(F)c1)N1CCCCC1C1OCCO1 (stereo not shown) | 4.7% |
| CNC(=O)c1c(C)nc(S)c(C#N)c1-c1ccco1 | 5.07% |
